Experimental findings from the supplement of paper PMC8183993 are described below.

Several values for one entry are separate records, joined by “and”; a condition that tells them apart may be missing. Equal values may be shown once. Where a name gives a salt, the structure may show the parent alone. ± gives the standard deviation of the averaged measurements. In all, about 3,100 compounds were measured (“mean cytoplasmic OPP incorporation (global translation) relative to DMSO”: median about 100, lowest 2% from about 56 on). Some of the results follow.

The test system of this assay is U2OS. Description: mean cytoplasmic OPP incorporation (global translation) relative to DMSO (% of DMSO); higher = more protein synthesis. The note with it: 10 µM; 24 h. As to the method: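 Primary image-based screen in U2OS cells: compounds at 10 uM for 24 h, then a 1 h o-propargyl-puromycin (OPP) pulse, click labelling, and high-throughput microscopy. Mean cytoplasmic OPP intensity and nuclei count were normalised to DMSO wells within each plate (DMSO = 100) and averaged over triplicate plates.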
`O=C(O[C@H]1CN2CCC1CC2)N1CCc2ccccc2[C@@H]1c1ccccc1` [Solifenacin succinate]: the “mean cytoplasmic OPP incorporation” value turned out to be 107.

For the molecule `NC(=O)N/N=C/c1ccc([N+](=O)[O-])o1` [Nitrofural], the “mean cytoplasmic OPP incorporation” value is 95.9.

Take `COc1ccc(S(=O)(=O)N2c3ccc(Cl)cc3[C@](O)(c3ccccc3Cl)[C@@H]2C(=O)N2CCC[C@H]2C(N)=O)cc1OC`: the “mean cytoplasmic OPP incorporation” value turned out to be 102.

Regarding `CN1CCCCC1CCN1c2ccccc2Sc2ccc([S+](C)[O-])cc21` (centres undefined) [Mesoridazine besylate], the “mean cytoplasmic OPP incorporation” value was found to be 93.

With `CO[C@@H]1[C@@H](OC(N)=O)[C@@H](O)[C@H](Oc2ccc3c(O)c(NC(=O)c4ccc(O)c(CC=C(C)C)c4)c(=O)oc3c2C)OC1(C)C` [Novobiocin sodium salt], the “mean cytoplasmic OPP incorporation” value came out at 109.

For `Nc1nc2c(nc(Br)n2[C@@H]2O[C@@H]3COP(=O)(O)O[C@H]3[C@H]2O)c(=O)[nH]1` [8-Bromo-cGMP, sodium salt], the “mean cytoplasmic OPP incorporation” value came to 95.5.

`CN(NC(=O)CC(=O)NN(C)C(=S)c1ccccc1)C(=S)c1ccccc1` [Elesclomol]: the “mean cytoplasmic OPP incorporation” value was 94.4.

Consider `CCN1CCN(C(=O)N[C@@H](C(=O)N[C@@H]2C(=O)N3[C@@H]2SC(C)(C)[C@@H]3C(=O)O)c2ccccc2)C(=O)C1=O` [Piperacillin sodium salt], for which the “mean cytoplasmic OPP incorporation” value stood at 104.

With `O=Nc1ccc(O)c2ncccc12`, the “mean cytoplasmic OPP incorporation” value is 89.8 and 59.3.

For the molecule `Nc1ccc(S(=O)(=O)c2ccc(N)cc2)cc1` [Dapsone], the “mean cytoplasmic OPP incorporation” value amounted to 95.4.

`O=C(c1ccc(C(=O)N2CCC(N3CCCC3)CC2)c(Nc2ccccc2)c1)N1CCC(N2CCCC2)CC1`: the “mean cytoplasmic OPP incorporation” value worked out at 104.

Consider `OC[C@H]1O[C@@H](Oc2ccc(O)cc2)[C@H](O)[C@@H](O)[C@@H]1O` [Arbutin], for which the “mean cytoplasmic OPP incorporation” value is 113.

For the molecule `CN(C)CCc1c[nH]c2ccc(Cn3cncn3)cc12` [Rizatriptan Benzoate (Maxalt)], the “mean cytoplasmic OPP incorporation” value was 102.

As to `OCCN1CCN(CCCN2c3ccccc3Sc3ccc(Cl)cc32)CC1` [Perphenazine], the “mean cytoplasmic OPP incorporation” value worked out at 117.

On to `Fc1ccc(-c2nc3n(c2-c2ccncc2)CCS3)cc1`, for which the “mean cytoplasmic OPP incorporation” value came out at 102.

With `CCC[C@H](N[C@@H](C)C(=O)N1[C@H](C(=O)O)C[C@@H]2CCCC[C@@H]21)C(=O)OCC` [Perindopril], the “mean cytoplasmic OPP incorporation” value was found to be 99.2.

Take `CCC[C@H](N[C@@H](C)C(=O)N1[C@H](C(=O)O)C[C@@H]2CCCC[C@@H]21)C(=O)OCC` [Perindopril Erbumine (Aceon)]: the “mean cytoplasmic OPP incorporation” value is 105.

For `Nc1ccc(C(=O)NCC(=O)O)cc1` [Aminohippuric acid], the “mean cytoplasmic OPP incorporation” value came out at 98.1.

As for `COc1ccc(NS(=O)(=O)c2ccc(N)cc2)nn1` [Sulfamethoxypyridazine], the “mean cytoplasmic OPP incorporation” value was found to be 101.

Turning to `CC1(C)OC(=O)NC1=O` [Dimethadione], the “mean cytoplasmic OPP incorporation” value amounted to 101.

On to `N[C@@H](C(=O)O)c1ccc(C(=O)O)c(C(=O)O)c1`, for which the “mean cytoplasmic OPP incorporation” value turned out to be 99.7.

With `N=C(N)NCC1COC2(CCCCC2)O1` (centres undefined) [Guanadrel sulfate], the “mean cytoplasmic OPP incorporation” value turned out to be 97.3.

On to `CCN(CC)Cc1ccc2cc(COC(=O)Nc3ccc(C(=O)NO)cc3)ccc2c1` [ITF2357 (Givinostat)], for which the “mean cytoplasmic OPP incorporation” value was 104.

Consider `CC(=O)Oc1cccc2c1C(=O)c1c(OC(C)=O)cc(C(=O)O)cc1C2=O` [Diacerein], for which the “mean cytoplasmic OPP incorporation” value turned out to be 102.

In the case of `CC(C)(C#N)c1ccc(N2C(=O)OCc3cnc4ccc(-c5cnc6ccccc6c5)cc4c32)cc1`, the “mean cytoplasmic OPP incorporation” value is 113.

Take `NC(C(=O)O)c1cc(O)cc(O)c1` (racemic): the “mean cytoplasmic OPP incorporation” value was found to be 107.

In the case of `COC1=CC(c2cc3ccccc3[nH]2)=N/C1=C\c1[nH]c(C)cc1C` [Obatoclax mesylate (GX15-070)], the “mean cytoplasmic OPP incorporation” value came to 156.

As to `N[C@H]1C(O)O[C@H](CO)[C@@H](O)[C@@H]1O` (some centres undefined) [Glucosamine HCl], the “mean cytoplasmic OPP incorporation” value came to 94.4.

As to `O=c1oc(Cl)c(Cl)c2ccccc12` [3,4-Dichloroisocoumarin], the “mean cytoplasmic OPP incorporation” value turned out to be 104.

Take `C=C1C[C@H]2[C@@H]3C=C(C)C4=CC(=O)CC[C@]4(C)[C@H]3CC[C@]2(C)[C@@]1(OC(C)=O)C(C)=O` [Melengestrol acetate]: the “mean cytoplasmic OPP incorporation” value was 104.

As to `CC(C)C[C@@H](C=O)NC(=O)[C@H](CC(C)C)NC(=O)[C@H](CC(C)C)NC(=O)OCc1ccccc1`, the “mean cytoplasmic OPP incorporation” value is 91.4 and 56.1.

Turning to `O=c1c(O)c(-c2cc(O)c(O)c(O)c2)oc2cc(O)cc(O)c12` [Myricetin (Cannabiscetin)], the “mean cytoplasmic OPP incorporation” value amounted to 101.

`CCN(CC)CCOc1ccc(Cc2ccccc2)cc1` [DPPE fumarate]: the “mean cytoplasmic OPP incorporation” value amounted to 109.

Take `Cc1cc(Cn2cnc3c2CC(C(=O)O)N(C(=O)C(c2ccccc2)c2ccccc2)C3)ccc1N(C)C` (centres undefined): the “mean cytoplasmic OPP incorporation” value is 101.

Turning to `Cc1ccc(S(=O)(=O)NC(=O)NN2CC3CCCC3C2)cc1` (centres undefined) [Gliclazide], the “mean cytoplasmic OPP incorporation” value was found to be 99.9.

Regarding `O=c1c(O)cccc2cc(O)c(O)c(O)c12` [Purpurogallin], the “mean cytoplasmic OPP incorporation” value was found to be 101.

In the case of `CC(=O)N[C@@H](CC(=O)N[C@@H](CCC(=O)O)C(=O)O)C(=O)O` [Spaglumic acid], the “mean cytoplasmic OPP incorporation” value was found to be 102 ± 3.7.

Consider `c1ccc(C(NCCNC(c2ccccc2)c2ccccc2)c2ccccc2)cc1` [AMN 082 dihydrochloride], for which the “mean cytoplasmic OPP incorporation” value was determined as 97.5.

As to `COc1nc(C)nc(Cl)c1NC1=NCCN1` [Moxonidine], the “mean cytoplasmic OPP incorporation” value worked out at 103.

Consider `COc1nc(C)nc(Cl)c1NC1=NCCN1` [Moxonidine hydrochloride], for which the “mean cytoplasmic OPP incorporation” value was 97.9.

Regarding `CNCCN1CCC(OCc2ccccc2)CC1`, the “mean cytoplasmic OPP incorporation” value is 111.

Regarding `CCCC[C@@H](C=O)NC(=O)[C@H](CC(C)C)NC(=O)OCc1ccccc1` [Calpeptin], the “mean cytoplasmic OPP incorporation” value is 106 ± 7.2.

`COc1cc2nc(N3CCN(C(=O)c4ccco4)CC3)nc(N)c2cc1OC` [Prazosin hydrochloride]: the “mean cytoplasmic OPP incorporation” value amounted to 94.1 ± 17.

`NCCS(=O)(=O)O` [Taurine]: the “mean cytoplasmic OPP incorporation” value came out at 98.9.

As for `CCn1cc(C(=O)O)c(=O)c2cnc(N3CCNCC3)nc21` [Pipemidic acid], the “mean cytoplasmic OPP incorporation” value turned out to be 105.

On to `N#CC(C#N)=C(N)/C(C#N)=C/c1ccc(O)cc1`, for which the “mean cytoplasmic OPP incorporation” value came to 106.

Turning to `Cc1nc2c(c(=O)[nH]1)CSCC2`, the “mean cytoplasmic OPP incorporation” value came to 98.5.

In the case of `CCCCCCCC/C=C\CCCCCCCC(=O)N[C@@H](CO)Cc1ccc(O)cc1`, the “mean cytoplasmic OPP incorporation” value was found to be 95.9.

Take `CCN(CC)CCNC(=O)c1cc(S(C)(=O)=O)ccc1OC` [Tiapride hydrochloride]: the “mean cytoplasmic OPP incorporation” value was determined as 103.

Take `O=C(CCCN1CC=C(n2c(=O)[nH]c3ccccc32)CC1)c1ccc(F)cc1` [Droperidol]: the “mean cytoplasmic OPP incorporation” value was 105.

With `Cc1cccc(/C=C/c2ccccc2)n1`, the “mean cytoplasmic OPP incorporation” value amounted to 99.9.

As for `COc1ccc2cc(CCC(C)=O)ccc2c1` [Nabumetone], the “mean cytoplasmic OPP incorporation” value stood at 84.

In the case of `COc1ccc(-c2oc3c(CC=C(C)C)c(O[C@@H]4O[C@H](CO)[C@@H](O)[C@H](O)[C@H]4O)cc(O)c3c(=O)c2O[C@@H]2O[C@@H](C)[C@H](O)[C@@H](O)[C@H]2O)cc1` [Icariin], the “mean cytoplasmic OPP incorporation” value came out at 99.6.

As to `Cc1cc(C)cc(C(=O)N(C)[C@H](Cc2ccc(-c3ccccc3)cc2)C(=O)N[C@@H](Cc2c[nH]c3ccccc23)C(=O)O)c1`, the “mean cytoplasmic OPP incorporation” value was 118.

For `C[C@H]1[C@@H](O)O[C@@H]2O[C@@]3(C)CC[C@H]4[C@H](C)CC[C@@H]1[C@@]24OO3` [Dihydroartemisinin (DHA)], the “mean cytoplasmic OPP incorporation” value was 86.7.

As to `CCn1cc(C(=O)O)c(=O)c2ccc(C)nc21` [Nalidixic acid sodium salt], the “mean cytoplasmic OPP incorporation” value worked out at 100.

For `C#CCN(C)Cc1ccccc1` [Pargyline hydrochloride], the “mean cytoplasmic OPP incorporation” value was 76.9.

`CCN(CC)CC#CCOC(=O)C(O)(c1ccccc1)C1CCCCC1` (centres undefined) [Oxybutynin chloride]: the “mean cytoplasmic OPP incorporation” value came to 108.

Consider `Cc1ncc([N+](=O)[O-])n1CCO` [Metronidazole], for which the “mean cytoplasmic OPP incorporation” value is 95.6.

`OC(CCN1CCCCC1)(c1ccccc1)C1CC2C=CC1C2` (centres undefined) [Biperiden HCl]: the “mean cytoplasmic OPP incorporation” value amounted to 104.

`OC(CCN1CCCCC1)(c1ccccc1)C1CC2C=CC1C2` (centres undefined) [Biperiden hydrochloride]: the “mean cytoplasmic OPP incorporation” value came to 101.

Turning to `O=C(NCCNCC(O)COc1ccc(O)cc1)N1CCOCC1` (centres undefined) [Xamoterol hemifumarate], the “mean cytoplasmic OPP incorporation” value worked out at 106 ± 6.2.

As to `CCN(Cc1ccncc1)C(=O)C(CO)c1ccccc1` (centres undefined) [Tropicamide], the “mean cytoplasmic OPP incorporation” value came out at 101 ± 3.8.

Consider `CN(C)CCOC1=Cc2ccccc2Sc2ccc(Cl)cc21` [Zotepine], for which the “mean cytoplasmic OPP incorporation” value came out at 115.

In the case of `CC(C)N1CCN(c2ccc(OCC3COC(Cn4cncn4)(c4ccc(Cl)cc4Cl)O3)cc2)CC1` (centres undefined) [Terconazole], the “mean cytoplasmic OPP incorporation” value is 109.

On to `CN1C2CCCC1CC(NC(=O)c1nn(C)c3ccccc13)C2` (centres undefined) [Granisetron], for which the “mean cytoplasmic OPP incorporation” value is 94.7.

As to `CN1C2CCCC1CC(NC(=O)c1nn(C)c3ccccc13)C2` (centres undefined) [Granisetron HCl], the “mean cytoplasmic OPP incorporation” value is 106.

On to `NC[C@H]1O[C@H](O[C@H]2[C@H](O[C@@H]3O[C@H](CO)[C@@H](O)[C@H]3O)[C@@H](O)[C@H](N)C[C@@H]2N)[C@H](N)[C@@H](O)[C@@H]1O` [Ribostamycin sulfate salt], for which the “mean cytoplasmic OPP incorporation” value was 102.

Regarding `Cc1ccc(C(=O)c2cc(O)c(O)c([N+](=O)[O-])c2)cc1` [Tolcapone], the “mean cytoplasmic OPP incorporation” value came out at 101.

Consider `O=Nc1c(-c2c(O)[nH]c3ccccc23)[nH]c2ccccc12` [Indirubin-3'-oxime], for which the “mean cytoplasmic OPP incorporation” value amounted to 91.

For `COc1ccc2[nH]cc(CCNC(C)=O)c2c1` [Melatonin], the “mean cytoplasmic OPP incorporation” value came out at 103 ± 4.6.

In the case of `C=CC[C@@H]1/C=C(\C)C[C@H](C)C[C@H](OC)[C@H]2O[C@@](O)(C(=O)C(=O)N3CCCC[C@H]3C(=O)O[C@H](/C(C)=C/[C@@H]3CC[C@@H](O)[C@H](OC)C3)[C@H](C)[C@@H](O)CC1=O)[C@H](C)C[C@@H]2OC` [FK-506 (Tacrolimus)], the “mean cytoplasmic OPP incorporation” value was 116.

With `Cc1c(C(=O)N(C)C2CCCCC2)sc2nc3ccc(N)cc3n12`, the “mean cytoplasmic OPP incorporation” value is 108.

`COc1ccc(C(=O)NCc2cccnc2)cc1C(=O)NCc1cccnc1` [Picotamide monohydrate]: the “mean cytoplasmic OPP incorporation” value was 98.8.

For `Cc1cc([N+](=O)[O-])ccc1NS(=O)(=O)c1cc(Cl)ccc1Cl`, the “mean cytoplasmic OPP incorporation” value worked out at 104.

As to `COc1ccc(COc2ccc(Cc3cnc(N)nc3N)cc2OC)cc1`, the “mean cytoplasmic OPP incorporation” value was determined as 106.

For `C=C[C@]1(C)C[C@@H](OC(=O)CS[C@@H]2C[C@H]3CC[C@@H](C2)N3C)[C@]2(C)[C@H](C)CC[C@]3(CCC(=O)[C@H]32)[C@@H](C)[C@@H]1O` [Retapamulin], the “mean cytoplasmic OPP incorporation” value stood at 118.

Take `Oc1ncnc2[nH]ncc12` [Allopurinol (Zyloprim)]: the “mean cytoplasmic OPP incorporation” value was found to be 117.

Turning to `Oc1ncnc2[nH]ncc12` [Allopurinol], the “mean cytoplasmic OPP incorporation” value came to 95.2.
